Over roughly 110,000 compounds, “z-score” has its median near -0.1; the highest 2% begin near 2. This is one part of the list. The source made the active and inactive calls.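 The calls were made as follows: active = z-score in the third read window above 3 or below -3; inactive = the rest.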

In the assay the target is Metabotropic glutamate receptor 8 (Rattus norvegicus) (UniProt P70579). Kind of assay: mGluR8 Gi/Go-coupled signaling modulation – cell-based, rat, thallium flux, HTS, primary screen (AID 488969). The following applies: HEK293 rat mGluR8, GIRK (G protein-gated inwardly rectifying potassium channel) thallium flux, FluoZin2; at 10 µM; stronger effect = higher value; submaximal glutamate (EC20) added with thallium.
Sequence of UniProt P70579 (P70579 whole entry, looked up): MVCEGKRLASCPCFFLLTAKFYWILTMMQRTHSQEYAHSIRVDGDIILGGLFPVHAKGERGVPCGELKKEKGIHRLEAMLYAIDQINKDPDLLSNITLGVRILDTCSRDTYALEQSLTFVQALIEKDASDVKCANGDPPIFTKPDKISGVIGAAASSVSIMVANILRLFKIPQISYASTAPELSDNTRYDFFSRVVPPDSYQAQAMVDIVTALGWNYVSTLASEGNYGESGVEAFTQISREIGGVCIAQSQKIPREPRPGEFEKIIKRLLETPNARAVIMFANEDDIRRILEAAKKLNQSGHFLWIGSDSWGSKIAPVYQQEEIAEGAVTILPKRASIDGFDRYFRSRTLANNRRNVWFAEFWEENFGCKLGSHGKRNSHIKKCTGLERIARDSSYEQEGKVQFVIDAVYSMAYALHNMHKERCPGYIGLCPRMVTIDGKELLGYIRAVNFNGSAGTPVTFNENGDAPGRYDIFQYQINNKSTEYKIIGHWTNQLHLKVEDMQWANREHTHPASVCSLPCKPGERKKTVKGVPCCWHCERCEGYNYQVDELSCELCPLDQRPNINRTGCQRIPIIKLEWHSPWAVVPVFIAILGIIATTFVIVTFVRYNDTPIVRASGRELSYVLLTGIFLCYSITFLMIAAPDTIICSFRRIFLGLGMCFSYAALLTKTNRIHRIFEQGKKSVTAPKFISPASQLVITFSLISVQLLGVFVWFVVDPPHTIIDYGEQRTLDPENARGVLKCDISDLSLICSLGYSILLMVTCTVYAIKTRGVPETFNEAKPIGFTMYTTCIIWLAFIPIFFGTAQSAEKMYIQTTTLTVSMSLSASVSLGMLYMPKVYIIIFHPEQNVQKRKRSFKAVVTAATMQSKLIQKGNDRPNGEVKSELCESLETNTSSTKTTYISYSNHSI
`CCOc1ccc(C(=O)/C=C/Nc2ccc(S(=O)(=O)N=C(N)N)cc2)cc1` came in with a z-score of -0.195.

Regarding `CC(=O)c1c(C)[nH]c(C(=O)COc2cc(C)ccc2C(C)C)c1C`, the z-score came to 0.317.

The compound `O/C(=C\Sc1nnc(Cc2ccccc2)o1)c1ccc(F)cc1` displayed a z-score of 0.166.

The compound `CCCCn1c(N)c(Sc2ccccc2)c(=O)[nH]c1=O` displayed a z-score of -0.264.

Consider `Cn1c(=O)c(=O)n(C)c2cc(S(=O)(=O)N3CCC(N4CCCCC4)CC3)ccc21`, for which the z-score is 1.22.

`Cc1cc(C)c2c3c(sc2n1)C1(CCSCC1)C(C#N)=C(N)O3` gave a z-score of -0.0686.

Compound `Cc1cc(N2C3CCC2CC(O)(c2ccc(F)cc2)C3)nc(-c2ccccc2)n1` (stereo unspecified) gave a z-score of -0.0896.

Consider `CC(=O)Nc1ccc(S(=O)(=O)N2CCCC2C(=O)O)cc1` (stereo unspecified), for which the z-score came to 0.696.

In the case of `Nc1nnc(C(c2ccccc2)c2ccccc2)s1`, the z-score is -0.189.

`COc1ccc(NC(=O)c2ccccc2F)cc1Cl` gave a z-score of -0.386.

As for `COc1ccc(Br)cc1CNC(=O)CCc1nc(-c2ccccc2F)no1`, the z-score was -0.197.

For `O=c1c2sccc2nc(SCc2ccc([N+](=O)[O-])cc2)n1Cc1ccccn1`, the z-score was -0.346.

`CN1CC2(C(=O)c3ccccc3)CN(C)CC(C(=O)c3ccccc3)(C1)C2` came in with a z-score of 0.389.

`O=C(CCCN1C(=O)/C(=C\c2ccco2)SC1=S)Nc1cccc2ccccc12` returned a z-score of 0.359.

`COc1cc(CNCc2cccs2)ccc1OCc1ccccc1` had a z-score of -0.391.

For `COc1cccc2c(=O)c(SC(F)(F)C(F)C(F)(F)F)c(C)[nH]c12` (stereo unspecified), the z-score was 0.261.

`CCCCCCc1cc2cc(C(=O)Nc3cccc(OC)c3)c(=O)oc2cc1O` showed a z-score of -0.279.

The compound `CCCCSc1nc(O)c(Cc2ccccc2)c(=O)[nH]1` gave a z-score of 0.379.

As to `CC(C)c1ccc(NC(=O)C2CCCN(S(=O)(=O)c3cnc[nH]3)C2)cc1` (stereo unspecified), the z-score was -0.184.

With `O=C(Cc1csc(Nc2nc(=S)[nH]c3ccccc23)n1)NCc1ccccc1Cl`, the z-score was active: 3.83.

In turn, `COc1ccccc1NC(=O)CSc1nnnn1Cc1ccccc1` returned a z-score of -0.315.

For the compound `Cc1ccc2[nH]c(-c3ccccc3)c(CN3CCOCC3)c(=O)c2c1`, the z-score is -0.256.

Compound `CCNC(=S)NNC(=O)Cn1nc(C)cc1C` returned a z-score of 0.0489.

As for `C=CCn1cc(C(=O)OC)c(=O)c2cc(S(=O)(=O)N(CC)CC)ccc21`, the z-score is -0.542.

Compound `Cc1nc(-c2ccccc2)sc1C(=O)/C=C/c1ccc(Cl)cc1` displayed a z-score of -0.365.

`O=c1cc(CO)oc(CN2CCN(CCO)CC2)c1O` showed a z-score of 0.178.

`O=S1(=O)N=C(Nc2nncs2)c2ccccc21` showed a z-score of -0.0574.

`O=C1c2ccsc2SCCN1Cc1ccccc1Cl`: the z-score was -1.35.

As to `CC(=O)C(Sc1nc(N2CCOCC2)nc(N2CCOCC2)n1)C(=O)Nc1ccccc1` (stereo unspecified), the z-score is -0.0389.

`Cc1ccc(-c2nn(C)c(=O)c3ccccc23)cc1CNS(C)(=O)=O`: the z-score was -0.0971.

For `COC(=O)CSc1cc(SCC(=O)OC)c(C#N)c(SCC(=O)OC)c1`, the z-score was -1.23.

Turning to `O=C(Nc1ccccc1)C1CC(=O)N(C2CCCCC2)C1` (stereo unspecified), the z-score is 0.315.

`COc1ccc(CC(=O)Nc2ccc(-c3nnc(-c4ccc(C)cc4)o3)cc2)cc1` had a z-score of -0.695.

In turn, `CC1(C)Cc2c(sc(/N=C/N3CCOCC3)c2C#N)C(C)(C)N1` had a z-score of -0.0886.

`Cc1cc(C(=O)OCC(=O)N2c3ccccc3CC2C)c(C)o1` (stereo unspecified): the z-score is -1.38.

For `O=C(COC(=O)c1c2c(nc3ccccc13)CCCCC2)c1ccc(Cl)s1`, the z-score is -0.0776.

Compound `Cc1ccc2cc3c(NC(=O)c4ccco4)nn(C)c3nc2c1` yielded a z-score of -0.516.

For `Cc1nc(-c2cn[nH]c2)c2cc(C)oc2n1`, the z-score is -0.371.

`Cc1cc(C)c(CSc2ncc(-c3ccc([N+](=O)[O-])cc3)[nH]2)c(C)c1`: the z-score is -0.26.

In the case of `COCCN(CCOC)S(=O)(=O)c1ccc(C(=O)Nc2nc(C)c(C(C)=O)s2)cc1`, the z-score was -0.266.

With `CN(C)c1ccc(C(=S)Nc2ccccc2)cc1`, the z-score is -0.296.

The compound `CCCC(=O)Nc1ccc(NC(=O)c2ccccc2Cl)nc1` registered a z-score of -0.116.

Take `COc1ccc(-c2cc(CNC(=O)CN(C)Cc3ccccc3)on2)cc1`: the z-score was -0.113.

The compound `COc1ccc(CCNC(=O)c2nonc2N)cc1` gave a z-score of -0.242.

On to `C=CCc1c(C)[nH]c2ccc(C)cc2c1=O`, for which the z-score is 0.0753.

In the case of `CC(C)n1cc(/C=C2/SC(=O)N(CC(=O)Nc3ccc4c(c3)OCO4)C2=O)c2ccccc21`, the z-score is 0.16.

In turn, `Cc1ccc2[nH]c(=O)c(CN(Cc3cccnc3)Cc3nnnn3CCN3CCOCC3)cc2c1` showed a z-score of 0.479.

For `CCCn1nc(NC(=O)C2CCCO2)c2cc3cc(C)ccc3nc21` (stereo unspecified), the z-score came to 0.0638.

Compound `COC(=O)c1cc2ccsc2n1Cc1cc(=O)n2ccccc2n1` registered a z-score of -0.127.

`COc1ccc(C2=CC(c3cccc(OC)c3)n3nnnc3N2)cc1` (stereo unspecified) showed a z-score of -0.0249.

In turn, `CCOc1cc(C(=O)N(C)Cc2cc3cc(OC)ccc3[nH]c2=O)cc(OCC)c1OCC` gave a z-score of 0.225.

The compound `Cc1ccc2nc(SCc3cn4cccnc4n3)[nH]c2c1` had a z-score of 0.132.

In turn, `CCC1Oc2ccc(C)cc2N(CC(=O)N(Cc2ccc(C)o2)C2CC(C)(C)NC(C)(C)C2)C1=O` (stereo unspecified) displayed a z-score of 0.58.

The compound `CSc1cccc(NC(=O)C2CCCN2S(=O)(=O)c2ccc(Br)s2)c1` (stereo unspecified) displayed a z-score of -0.411.

`CCn1c(SCC(=O)N2CCCCC2)nc2c(c1=O)SC(C)C2` (stereo unspecified) gave a z-score of -1.57.

`Cc1nnc(C)n1/N=C/c1ccccc1` came in with a z-score of 0.733.

With `COc1cccc(CNC(=O)Cc2nc3nc(C)cc(C)n3n2)c1`, the z-score is -0.187.

`O=C(Nc1nc2ccccc2n1CCN1CCCCC1)c1ccc(Cl)cc1` showed a z-score of 0.975.

The compound `CCOC(=O)c1cnc(-c2ccccc2)nc1Oc1ccccc1` came in with a z-score of -0.19.

As to `O=C(NCCc1cccs1)C12CN(Cc3ccccc3)CC1C(c1cccc([N+](=O)[O-])c1)=NO2` (stereo unspecified), the z-score is -0.481.

`Cc1onc(-c2ccccc2Cl)c1C(=O)N/N=C(\N)COc1ccc(Cl)cc1` yielded a z-score of -0.00188.

Regarding `COc1ccc(-c2nn(-c3ccccc3)cc2/C=N/n2cnnc2)cc1OC`, the z-score is -0.958.

`COc1ccc(C(=O)NCc2nnc(SCC(=O)Nc3cc(C)cc(C)c3)o2)cc1OC`: the z-score was -0.401.

As to `COc1ncnc2sc3c(c12)CCCC3`, the z-score was -0.287.

As for `CCOc1ccccc1-n1nnnc1SCC(=O)Nc1cc2oc3ccccc3c2cc1OC`, the z-score was found to be 0.384.

`c1ccc(-c2noc(-c3cccc4ccccc34)n2)nc1` came in with a z-score of -0.375.

As to `COc1ccc(OCCC(=O)NC2=NCCS2)cc1`, the z-score was -0.277.

As for `COc1ccc(C)cc1NC(=O)CSc1nnc(-c2cc3cccc(OC)c3o2)n1N`, the z-score is -0.21.

Turning to `Cc1cc(C)c2c(=O)[nH]c(SCC(=O)N(C)C)nc2n1`, the z-score was -0.499.

Consider `O=C(CSc1cccc2cccc(Cl)c12)NCc1cccs1`, for which the z-score is active: 3.5.

In turn, `C=CCc1ccc(OCCn2cccc2C=O)c(OC)c1` yielded a z-score of -0.437.

`CCCOc1ccc2c(=O)c(-c3cc(C(=O)OC)oc3C)c(C)oc2c1`: the z-score was -0.282.

On to `Cc1[nH]c2ccc(OC(=O)N3CCOCC3)cc2c1C(=O)OC(C)C`, for which the z-score is -0.288.

`CCCSc1nc2c(c(=O)n1CC)SC(C)C2` (stereo unspecified) had a z-score of -0.713.

For the compound `CCOCC(O)CNc1ccccc1` (stereo unspecified), the z-score was -0.0266.

`O=C(NCc1ccccc1)C(c1ccccc1)N(Cc1cccs1)C(=O)c1cnccn1` (stereo unspecified) came in with a z-score of 0.21.

`CCOCCCNS(=O)(=O)c1ccc(NC(=O)c2ccc([N+](=O)[O-])cc2Cl)cc1` displayed a z-score of -0.485.

For `N#C/C(=C\c1ccccc1)c1n[nH]c(Cn2cncn2)n1`, the z-score is -0.763.

In turn, `CCc1nnc(NC(=O)CN2CCN(C3CCCCC3)CC2)s1` returned a z-score of 1.07.

Consider `CCOC(=O)c1c(C(F)(F)F)nc2ncccn12`, for which the z-score is -0.534.

Take `c1ccc(-c2nnc3n2NC(c2ccc4c(c2)OCO4)S3)cc1` (stereo unspecified): the z-score was 1.86.

`COc1cc(N=Cc2c(O)[nH]c3ccccc23)cc(OC)c1OC` came in with a z-score of -0.838.

`CC(=O)Nc1ccc(C#Cc2ccc(NC(C)=O)cc2)cc1` had a z-score of -0.144.

With `COc1ccc(OC)c(S(=O)(=O)Nc2ccc(O)c3ccccc23)c1`, the z-score was -0.0409.

In turn, `Cc1ccc(S(=O)(=O)Oc2ccccc2/C=N/NC(=O)c2nn(C)cc2[N+](=O)[O-])cc1` had a z-score of -0.0644.

With `COc1ccc(N2CC(C(=O)Nc3nccs3)CC2=O)cc1` (stereo unspecified), the z-score is -0.576.

The compound `COC(=O)c1ccc(NC(=O)CCN2CCCCC2)cc1` came in with a z-score of -0.167.

In the case of `Cc1cccc(/C=C/C(=O)c2ccc(NC3=NCCCS3)cc2)c1`, the z-score was -0.306.

Take `O=C(NCC(=O)N(c1cnc2ccccc2c1)C(C(=O)NC1CCCC1)c1ccncc1)c1ccco1` (stereo unspecified): the z-score came out at 0.282.

`CC1(C)CC(=O)C/C(=N/NC(=O)CCCOc2ccc(Cl)cc2Cl)C1` returned a z-score of -0.05.

As for `N#Cc1ccc(-n2c(-c3ccccc3)nnc2-c2ccccc2)cc1C#N`, the z-score is 0.19.

The compound `Nc1nc(CSC(=S)N2CCN(c3ccccc3)CC2)nc(Nc2ccc(F)cc2)n1` came in with a z-score of -0.156.

As for `Cc1nc2ccccc2c2oc(C(=O)Nc3ccc4c(c3)OCCO4)cc12`, the z-score was -0.135.

On to `Cc1ccc(NC2=C(Cl)C(=O)OC2OC(C)C)c(C)c1` (stereo unspecified), for which the z-score is -0.0319.

The compound `CCOc1c2ccc(C(=O)NC3CCCc4ccccc43)cc2nn1C` (stereo unspecified) registered a z-score of 0.0615.

For `COCn1c(COc2ccc3ccccc3c2)nc2ccccc21`, the z-score was -0.203.

As for `COc1ccc(CCN2C(=O)c3[nH]nc(-c4ccccc4O)c3C2c2cccc(O)c2)cc1OC` (stereo unspecified), the z-score turned out to be 1.66.

`COc1ccc(S(=O)(=O)N2CCN(c3nc4ccccc4nc3-n3nc(C)cc3C)CC2)cc1` displayed a z-score of -0.27.

The compound `COc1ccc(N2CCN(C(=O)CSc3ncnc4c3cnn4-c3ccccc3C)CC2)cc1` registered a z-score of -0.36.

`COc1cc(C(=O)OC2CCCCC2=O)cc(OC)c1C` (stereo unspecified) gave a z-score of 1.1.

`CCCc1nc(SCC(=O)N2c3ccccc3CC2C)c2c(C)c(C)sc2n1` (stereo unspecified) showed a z-score of 0.245.

Compound `COc1cccc2cc(C(=O)N3CCN(c4ncccn4)CC3)c(=O)oc12` returned a z-score of -0.344.

`Cc1cccc(NC2=NC3(CCCCC3)N=C(N)N2)c1C` registered a z-score of 0.0252.

In turn, `Cc1c(C(=O)OC(C)C)sc(NC(=O)C2CCCO2)c1C(=O)OC(C)C` (stereo unspecified) came in with a z-score of -0.0386.

Compound `COc1cc(S(=O)(=O)N(Cc2cccs2)CC2CCCO2)ccc1-n1cnnn1` (stereo unspecified) gave a z-score of -0.12.

For `Cc1cccc(N(CC(=O)NC2CCCC2)C(=O)CS(=O)CC(=O)Nc2ccc3c(c2)OCO3)c1C` (stereo unspecified), the z-score is -0.253.

As for `CC1CCN(S(=O)(=O)c2ccc(NC(=O)CN3CCCC(C)C3)cc2)CC1` (stereo unspecified), the z-score amounted to 0.282.

The compound `COCCCNc1ncnc2ccc(C)cc12` showed a z-score of -0.177.

`COc1c(/C=N/NC(N)=S)c(C)nn1-c1ccccc1`: the z-score is -0.095.

As to `c1ccc2c3nnc4n(c-3nc2c1)CCCS4`, the z-score was -0.272.

Consider `CNC(=S)Nc1ccccc1-c1ccccc1`, for which the z-score was -0.0706.

(Values after PubChem BioAssay AID488969 (Vanderbilt High Throughput Screening Facility, 2010).)
